Test results reported in patent US4879212A, “Peptide composition and method for the detection of antibodies to HTLV-III” (United Biomedical Inc., priority 1987, dated 1989).
Entries after “also recorded” stand apart in the source; their conditions may differ. Not every detail of the peptide structures is certain; ends, links or a residue may be inferred. Ends that are not written are not given here. Peptide text beside a SMILES is read from it.

How the values were obtained:
anti HTLV-III antibodies = assay: Immunoreactivity of peptides at 1 ug per well in ELISA with pooled AIDS serum, relative to 21mer peptide; assay type: binding, human; conditions: pooled AIDS serum sample, 21mer peptide set as 100%
From the text: Various peptide analogs based on the above described amino acid sequence have been prepared. These analogs and their reactivities with the anti HTLV-III antibodies present in sera of AIDS and ARC patients are described in Example 8 and Table III. The reactivity in an ELISA test for the same amount of each peptide by weight per volume was compared with the reactivity of the 21mer peptide, which was assigned a reactivity of 100.
The 35mer peptide, 19mer peptide, 11mer peptide and eight analogues of the 21mer peptide, and overlapping 19mer peptide were prepared in their amide form according to the classical Merrifield method described herein above.
The immunoreactivity of the various peptides at 1 ug per well level was tested using a pooled AIDS serum sample. The reactivity of each peptide was compared with the reactivity of the 21mer peptide which was set as 100%.

antibodies to HTLV-III = assay: ELISA using 11mer peptide coated plate compared with Western Blot; assay type: binding, human

Molecule | Reactivity % (anti HTLV-III antibodies) [%] | other results
CC[C@H](C)[C@H](NC(=O)[C@H](CC(C)C)NC(=O)[C@H](CCCCN)NC(=O)CNC(=O)[C@H](CO)NC(=O)[C@@H](N)CS)C(=O)N[C@@H](CS)C(=O)N[C@H](C(=O)N[C@H](C(=O)N[C@@H](C)C(=O)N[C@H](C(=O)N1CCC[C@H]1C(=O)N[C@@H](Cc1c[nH]c2ccccc12)C(=O)N[C@@H](CC(N)=O)C(=O)N[C@@H](C)C(=O)N[C@@H](CO)C(N)=O)C(C)C)[C@@H](C)O)[C@@H](C)O [Peptide 13, Cys--Ser--Gly--Lys--Leu--Ile--Cys--Thr--Thr--Ala--Val--Pro--Trp--Asn--Ala--Ser] (H-CSGKLICTTAVPWNAS-NH2) | 57.5 | 
CC[C@H](C)[C@H](N)C(=O)N[C@@H](Cc1c[nH]c2ccccc12)C(=O)NCC(=O)N[C@@H](CS)C(=O)N[C@@H](CO)C(=O)NCC(=O)N[C@@H](CCCCN)C(=O)N[C@@H](CC(C)C)C(=O)N[C@H](C(=O)N[C@@H](CS)C(=O)N[C@H](C(=O)N[C@H](C(=O)N[C@@H](C)C(=O)N[C@H](C(=O)N1CCC[C@H]1C(=O)N[C@@H](Cc1c[nH]c2ccccc12)C(=O)N[C@@H](CC(N)=O)C(=O)N[C@@H](C)C(=O)N[C@@H](CO)C(N)=O)C(C)C)[C@@H](C)O)[C@@H](C)O)[C@@H](C)CC [Peptide 14, Ile--Trp--Gly--Cys--Ser--Gly--Lys--Leu--Ile--Cys--Thr--Thr--Ala--Val--Pro--Trp--Asn--Ala--Ser] (H-IWGCSGKLICTTAVPWNAS-NH2) | 99.0 | 
CC[C@H](C)[C@H](NC(=O)CNC(=O)[C@H](CC(C)C)NC(=O)[C@H](CC(C)C)NC(=O)[C@H](CCC(N)=O)NC(=O)[C@H](CCC(N)=O)NC(=O)[C@H](CC(=O)O)NC(=O)[C@H](CCCCN)NC(=O)[C@@H](N)CC(C)C)C(=O)N[C@@H](Cc1c[nH]c2ccccc12)C(=O)NCC(=O)N[C@@H](CS)C(=O)N[C@@H](CO)C(=O)NCC(=O)N[C@@H](CCCCN)C(=O)N[C@@H](CC(C)C)C(=O)N[C@H](C(=O)N[C@@H](CS)C(=O)N[C@H](C(=O)N[C@H](C(=O)N[C@@H](C)C(=O)N[C@H](C(=O)N1CCC[C@H]1C(=O)N[C@@H](Cc1c[nH]c2ccccc12)C(=O)N[C@@H](CC(N)=O)C(=O)N[C@@H](C)C(=O)N[C@@H](CO)C(N)=O)C(C)C)[C@@H](C)O)[C@@H](C)O)[C@@H](C)CC [Peptide 15, Leu--Lys--Asp--Gln--Gln--Leu--Leu--Gly--Ile--Trp--Gly--Cys--Ser--Gly--Lys--Leu--Ile--Cys--Thr--Thr--Ala--Val--Pro--Trp--Asn--Ala--Ser] (H-LKDQQLLGIWGCSGKLICTTAVPWNAS-NH2) | 73.4 | 
CC[C@H](C)[C@H](NC(=O)CNC(=O)[C@H](CC(C)C)NC(=O)[C@H](CC(C)C)NC(=O)[C@H](CCC(N)=O)NC(=O)[C@H](CCC(N)=O)NC(=O)[C@H](CC(=O)O)NC(=O)[C@H](CCCCN)NC(=O)[C@H](CC(C)C)NC(=O)[C@H](Cc1ccc(O)cc1)NC(=O)[C@H](CCCNC(=N)N)NC(=O)[C@H](CCC(=O)O)NC(=O)[C@@H](NC(=O)[C@H](C)N)C(C)C)C(=O)N[C@@H](Cc1c[nH]c2ccccc12)C(=O)NCC(=O)N[C@@H](CS)C(=O)N[C@@H](CO)C(=O)NCC(=O)N[C@@H](CCCCN)C(=O)N[C@@H](CC(C)C)C(=O)N[C@H](C(=O)N[C@@H](CS)C(=O)N[C@H](C(=O)N[C@H](C(=O)N[C@@H](C)C(=O)N[C@H](C(=O)N1CCC[C@H]1C(=O)N[C@@H](Cc1c[nH]c2ccccc12)C(=O)N[C@@H](CC(N)=O)C(=O)N[C@@H](C)C(=O)N[C@@H](CO)C(N)=O)C(C)C)[C@@H](C)O)[C@@H](C)O)[C@@H](C)CC [Peptide 16, Ala--Val--Glu--Arg--Tyr--Leu--Lys--Asp--Gln--Gln--Leu--Leu--Gly--Ile--Trp--Gly--Cys--Ser--Gly--Lys--Leu--Ile--Cys--Thr--Thr--Ala--Val--Pro--Trp--Asn--Ala--Ser] (H-AVERYLKDQQLLGIWGCSGKLICTTAVPWNAS-NH2) | 107.1 | 
DQQLLGIWGCS-NH2 [Peptide 10, Asp--Gln--Gln--Leu--Leu--Gly--Ile--Trp--Gly--Cys--Ser] | 8 | 
GKLICTTAVPWNAS-NH2 [Peptide 12, Gly--Lys--Leu--Ile--Cys--Thr--Thr--Ala--Val--Pro--Trp--Asn--Ala--Ser] | 2.42 | 
IVRMYSPTSIL-NH2 [11mer peptide, Ile-Val-Arg-Met-Tyr-Ser-Pro-Thr-Ser-Ile-Leu] |  | samples showing non-reactivity out of the 107 negative by Western Blot (antibodies to HTLV-III; 266 serum samples screened): 105; samples showing reactivity out of the 159 positive by Western Blot (antibodies to HTLV-III; 266 serum samples screened): 114; immunoreactivity of 11mer as solid phase immuno adsorbent (in words) (antibodies to HTLV-III; comparison with Western Blot): highly immunoreactive; also recorded: immunoreactive with antibodies to HTLV-III; ELISA p24- (p24 negative) (antibodies to HTLV-III; non-reactive samples / samples p24 negative by Western Blot, 1 ug per well): 105/107; ELISA p24+ (p24 positive) (antibodies to HTLV-III; reactive samples / samples p24 positive by Western Blot, 1 ug per well): 114/159
KDQQLLGIWGCS-NH2 [Peptide 9, Lys--Asp--Gln--Gln--Leu--Leu--Gly--Ile--Trp--Gly--Cys--Ser] | 38.3 | 
QLQARILAVERYLK-NH2 [Peptide 2, Gln--Leu--Gln--Ala--Arg--Ile--Leu--Ala--Val--Glu--Arg--Tyr--Leu--Lys] | 13.5 | 
RILAVERYLK-NH2 [Peptide 3, Arg--Ile--Leu--Ala--Val--Glu--Arg--Tyr--Leu--Lys] | 5 | 
VWGIKQLQARILAVERYLK-NH2 [Peptide 1, Val--Trp--Gly--Ile--Lys--Gln--Leu--Gln--Ala--Arg--Ile--Leu--Ala--Val--Glu--Arg--Tyr--Leu--Lys] | 5 | 
